± gives the standard deviation of the averaged measurements. The list shows a part of the results.
test system: PfAP2-EXP AP2 domain (GST-tagged); assay: gcPBM binding intensity (ln(normalized median fluorescence intensity)); higher = stronger DNA binding
How it was run: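 Each value is the highest Masliner-normalised natural-log median intensity across replicate spots of either orientation of a probe. The probes were primer-extended double-stranded 36-bp intergenic genomic sequences on an Agilent 4 × 180k array, alongside negative controls, exposed for 1 h to GST-tagged P. falciparum DNA-binding domains expressed in E. coli. Bound protein was picked up with Alexa488 anti-GST antibody and scanned at 488 nm.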

Sequence	gcPBM binding intensity (ln)
TTGTGTAAATGTTAAGTGCATTTGGTAAAATATAAA [GTGCAC_site9699]	8.64 ± 0.2
TTTTTCTTTTTTTGGGGTACAGGGAAATCTATATTT [XGTACX_site7025]	9.14 ± 0.57
TCTTAATTTTTGAAGGTACACACTAATATATTAAAT [CACACA_site1191]	8.62 ± 0.42
CCATAAAAAGGTACATGTACAAAAAGCAAAAATATG [XGTACX_site5543]	9.14 ± 0.45
ATATTTTTCCAACATCGTACATTATGAGTCAAAATT [XGTACX_site993]	8.71 ± 0.38
CCCATATTATAGGTGTGTACATAAAAGTATATATAA [XGTACX_site3629]	8.94 ± 0.54
AGAAGAAATATGTAAAAAATTTTATATTCACACACA [GTGCAC_negctrl_site441]	8.58 ± 0.37
TTTCTTATCAACCTTTTTTTTTTTTTTTTATTCTTA [TGCATGCA_negctrl_site162]	8.41 ± 0.47
CAATTAAAGATATGAACACACATGTGAACTTTCTAT [CACACA_site7796]	8.5 ± 0.49
AATTTAATTTTTTCGTGTACTTATATAGGAGGTTTT [XGTACX_site8310]	8.77 ± 0.47
TGTAGACATTAATGTAGTACAATATATATATATATT [XGTACX_site8608]	8.68 ± 0.31
TGTTCTTATACTAATAGTACTTTTAGGTACTATAAA [XGTACX_site2954]	8.22 ± 0.28
TTTATATATAATGTTGCATGTCAAATTTGTATATGG [TGCATGCA_site246]	9.12 ± 0.3
TGTAGAAATGGGTGCACACACATATATAATATATAT [CACACA_site2507]	9.34 ± 0.59
AACTCATCTTATAATTGTACATATTTATAAAAAGTA [XGTACX_site6522]	8.46 ± 0.37
TTAGGGATGCTGAAATGTACACATTTAAATTATATA [XGTACX_site3000]	8.44 ± 0.29
AAAAAAAAAAAAAAAAAAAAAAAAAAAAAATATATA [GTGCAC_negctrl_site6]	9.105 ± 0.078
AATGTAAAACTAATATGTACATATCTCTAAAGAAAT [XGTACX_site8429]	8.65 ± 0.41
ATTGTCTTCCTTCTGGTGCGATGTATAGGTAAAGAT	8.81 ± 0.37
CGTACTAACATAAAGACACACACCACATATAATAAA [CACACA_site3603]	8.72 ± 0.63
TACGTGAAATTATATACACACATAAATATGTCTGTA [CACACA_site3122]	8.16 ± 0.36
AAGCTACACATAGATTATTATTAATTTAATGTATAT [CACACA_negctrl_site548]	8.05 ± 0.32
AATTATTAGCGTGGTGTGCACAAAATTATGGACACA	8.85 ± 0.17

Sequence	gcPBM binding intensity (ln)
ACAAGCTTTCATAAGGTGCAATGATTTAACAAAAAA [GTGCAC_site9726]	8.62 ± 0.23
AGCATTTATGAAAAATGTACACACATCAAATGCTTA [XGTACX_site8749]	8.65 ± 0.31
ACACATGACATCCGTTGTACAATCATCATAAAAATG [XGTACX_site5397]	8.91 ± 0.36
TATAAAAATAATATTACACACATGTAAAATGTCGGT [CACACA_site3264]	8.31 ± 0.35
AGCAACCCCCTAGCTACACACATATAGATATATATA [CACACA_site951]	9.69 ± 0.56
TAAAATTTTTTTGTTTGTACATATATATATATAATA [XGTACX_site5609]	8.72 ± 0.52
TTTCCCTTAAATTAATGTACATAAATTGAAAATACC [XGTACX_site1602]	8.67 ± 0.3
TATATATTATACACGTGTACACATTATAACAATATA [XGTACX_site7799]	8.65 ± 0.31
TTGCCCCAGGAGTTCACACACATAATAGATTGTCAC [CACACA_site726]	8.63 ± 0.44
AAAAAAAAAAAACACACACACAAAAAAAAATATATA [CACACA_site1105]	8.38 ± 0.61
AAAAAAATAAATAAATACATACATATATATATGTAT [GTGCAC_negctrl_site510]	8.2 ± 0.37
TTGTTTCCTTAATATTCACACACATATATATAATAT [CACACA_site8553]	8.89 ± 0.48
ATAAAAATTAAAGAATGTACACATATAATATATGTA [XGTACX_site8735]	8.38 ± 0.34
AAAAGTTATAGACACACACACATATAAATATAGATT [CACACA_site6617]	8.53 ± 0.48
ATAATCCTTAAACACACACACACACTAATAAATAAA [CACACA_site8052]	8.67 ± 0.62
TATAAATGTATACAAGTGCATATTATTCACACATAA	8.73 ± 0.16
TTTTAAAAAAATAAATAAATAGAAAAAAAAAATAAA [TGCATGCA_negctrl_site579]	8.45 ± 0.39
GGATATATTTTATGTACACACATATATAACGGATAT [CACACA_site4847]	8.77 ± 0.28
TATTATGACTTAAGTTGTACTGTTGAAAGAAGAAAA [XGTACX_site2985]	8.75 ± 0.44
TAATATATTGTAGATGCATGCATTAACTATTACAAA [TGCATGCA_site190]	9.7 ± 0.11
CGTATAAATAAATACACACACATATAAATATGTAAA [CACACA_site6236]	8.34 ± 0.44
TATCAATGGAAAATATATATTTGTATATATGTAATA [XGTACX_negctrl_site257]	8.46 ± 0.4

— the supplement of paper PMC11417369
